Data on 7 molecules can be found in paper PMC5386880.

By UniProt entry, the sequences of proteins in these tests, tags left out.
UniProt P51140: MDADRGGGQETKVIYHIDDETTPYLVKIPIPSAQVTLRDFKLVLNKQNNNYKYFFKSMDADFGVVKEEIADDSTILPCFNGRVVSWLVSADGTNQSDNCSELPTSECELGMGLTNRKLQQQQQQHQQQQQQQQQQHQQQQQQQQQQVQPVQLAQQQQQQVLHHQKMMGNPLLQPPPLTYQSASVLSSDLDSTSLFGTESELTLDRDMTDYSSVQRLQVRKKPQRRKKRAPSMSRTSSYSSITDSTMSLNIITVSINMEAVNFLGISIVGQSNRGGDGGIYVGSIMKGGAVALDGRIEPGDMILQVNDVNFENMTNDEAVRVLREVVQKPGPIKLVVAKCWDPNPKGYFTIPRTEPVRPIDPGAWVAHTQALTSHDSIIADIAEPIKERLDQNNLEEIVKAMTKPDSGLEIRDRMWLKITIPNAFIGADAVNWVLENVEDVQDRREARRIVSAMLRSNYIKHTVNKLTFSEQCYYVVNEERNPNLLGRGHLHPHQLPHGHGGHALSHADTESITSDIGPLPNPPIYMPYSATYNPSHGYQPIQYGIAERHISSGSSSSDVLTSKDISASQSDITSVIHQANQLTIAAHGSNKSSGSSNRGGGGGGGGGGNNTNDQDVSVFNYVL

These are yes or no findings as the source states them, for the method shown. Some entries that bind do so weakly or less than the wild type. Tags and fused reporters may be left off the sequences shown.

First the molecules themselves.
B1: Frtz with aa 700-800 deleted (protein, UniProt Q9VQ36)
chain: MLLSETHFWTTLREDVVRIKSQDLGAFRYLRQRDKEQEQQDLACLAKRDYTERRNGLAVLKNSGRKSTGRLKDNLKKLEDLLRQHRIIHSEWQDAAQVLLLFSHGLIAHICVDIYTGDILRMVFEKYLVGKLASEVITDAFFTRSHIVLAYNTNQLTVVHLQRPNARSQGPEKIANMDPRIFHVIIPGATERKLSRHLTVNASFDLFVVWTQSSQNEVYPWRPTIRDQDRANIHVFKIKGLQLESIAYCWSENDPLCVDFLRSSESQIITLEQKVSRKGDISAEICSYELAAGKMQRTAITSIPMGAQICSFAFSPDQEKLFLGSVDRNICLHDLVQQSTKYANQIEIVPNQCAWHCDSAMLCVANERSVLQCFDLALATIGHQLVSENVTPSSLLDLSHYFVAQPTLLSVAFSRKPDLSTFKHTYAQTDCLLLLVYEQGPLACMRIFGGTGMRGDIHNSGLTADVIADKYLRLQQPDRAVNVLAALNWETYGAMCLITLHKIANYVFFGGDQRRPRIELMARALKTFAHTLSEETKDEFSDQVYDLKRRFCFYLLRKNLFAEAFEIAQDVADYDIFMDLYNLTKCISSLSEFAQVAFSQAAAIIHEEDRANGNLSLTCDLRSESACSLSTCSDMLRGQGAGTAPETGLGASQPQSQQVLKNYVPPLPSFKSKVFNAEMIKINIPKPELRPPLPKVSIALTSEDYQKRLLQKKPTASILSNPANPAPTNGEAPATPAKSQTAEKNKVKFSDTIQVAVVPEIPRKEKPMPPKRNGYSRPAARHLTNPKKELADSLPLCHPNDEYLKDFNPITTNVTKPPIRRREEEPKSSSKGGNSSSSSSSIKVVHFGVV
B2: Fritz (Frtz), full length, yeast two-hybrid fusion (protein, UniProt Q9VQ36 1-951)
chain: MLLSETHFWTTLREDVVRIKSQDLGAFRYLRQRDKEQEQQDLACLAKRDYTERRNGLAVLKNSGRKSTGRLKDNLKKLEDLLRQHRIIHSEWQDAAQVLLLFSHGLIAHICVDIYTGDILRMVFEKYLVGKLASEVITDAFFTRSHIVLAYNTNQLTVVHLQRPNARSQGPEKIANMDPRIFHVIIPGATERKLSRHLTVNASFDLFVVWTQSSQNEVYPWRPTIRDQDRANIHVFKIKGLQLESIAYCWSENDPLCVDFLRSSESQIITLEQKVSRKGDISAEICSYELAAGKMQRTAITSIPMGAQICSFAFSPDQEKLFLGSVDRNICLHDLVQQSTKYANQIEIVPNQCAWHCDSAMLCVANERSVLQCFDLALATIGHQLVSENVTPSSLLDLSHYFVAQPTLLSVAFSRKPDLSTFKHTYAQTDCLLLLVYEQGPLACMRIFGGTGMRGDIHNSGLTADVIADKYLRLQQPDRAVNVLAALNWETYGAMCLITLHKIANYVFFGGDQRRPRIELMARALKTFAHTLSEETKDEFSDQVYDLKRRFCFYLLRKNLFAEAFEIAQDVADYDIFMDLYNLTKCISSLSEFAQVAFSQAAAIIHEEDRANGNLSLTCDLRSESACSLSTCSDMLRGQGAGTAPETGLGASQPQSQQVLKNYVPPLPSFKSKVFNAEMIKINIPKPELRPPLPKVSIAPPTSSLASLTLKSNSSLQQAPAKSLHPNGNLWSQDVPDQTVGLPMASSPLPRLPPSNIPDQSAQLGQFSTMPASPPPTGSYQPKFYQHPLVSGNIPAMLPSLTSEDYQKRLLQKKPTASILSNPANPAPTNGEAPATPAKSQTAEKNKVKFSDTIQVAVVPEIPRKEKPMPPKRNGYSRPAARHLTNPKKELADSLPLCHPNDEYLKDFNPITTNVTKPPIRRREEEPKSSSKGGNSSSSSSSIKVVHFGVV
B3: Frtz with aa 600-700 deleted (protein, UniProt Q9VQ36)
chain: MLLSETHFWTTLREDVVRIKSQDLGAFRYLRQRDKEQEQQDLACLAKRDYTERRNGLAVLKNSGRKSTGRLKDNLKKLEDLLRQHRIIHSEWQDAAQVLLLFSHGLIAHICVDIYTGDILRMVFEKYLVGKLASEVITDAFFTRSHIVLAYNTNQLTVVHLQRPNARSQGPEKIANMDPRIFHVIIPGATERKLSRHLTVNASFDLFVVWTQSSQNEVYPWRPTIRDQDRANIHVFKIKGLQLESIAYCWSENDPLCVDFLRSSESQIITLEQKVSRKGDISAEICSYELAAGKMQRTAITSIPMGAQICSFAFSPDQEKLFLGSVDRNICLHDLVQQSTKYANQIEIVPNQCAWHCDSAMLCVANERSVLQCFDLALATIGHQLVSENVTPSSLLDLSHYFVAQPTLLSVAFSRKPDLSTFKHTYAQTDCLLLLVYEQGPLACMRIFGGTGMRGDIHNSGLTADVIADKYLRLQQPDRAVNVLAALNWETYGAMCLITLHKIANYVFFGGDQRRPRIELMARALKTFAHTLSEETKDEFSDQVYDLKRRFCFYLLRKNLFAEAFEIAQDVADYDIFMDLYNLTKCISSLSEFAQVAFSPTSSLASLTLKSNSSLQQAPAKSLHPNGNLWSQDVPDQTVGLPMASSPLPRLPPSNIPDQSAQLGQFSTMPASPPPTGSYQPKFYQHPLVSGNIPAMLPSLTSEDYQKRLLQKKPTASILSNPANPAPTNGEAPATPAKSQTAEKNKVKFSDTIQVAVVPEIPRKEKPMPPKRNGYSRPAARHLTNPKKELADSLPLCHPNDEYLKDFNPITTNVTKPPIRRREEEPKSSSKGGNSSSSSSSIKVVHFGVV
B4: Frtz with aa 300-400 deleted (protein, UniProt Q9VQ36)
chain: MLLSETHFWTTLREDVVRIKSQDLGAFRYLRQRDKEQEQQDLACLAKRDYTERRNGLAVLKNSGRKSTGRLKDNLKKLEDLLRQHRIIHSEWQDAAQVLLLFSHGLIAHICVDIYTGDILRMVFEKYLVGKLASEVITDAFFTRSHIVLAYNTNQLTVVHLQRPNARSQGPEKIANMDPRIFHVIIPGATERKLSRHLTVNASFDLFVVWTQSSQNEVYPWRPTIRDQDRANIHVFKIKGLQLESIAYCWSENDPLCVDFLRSSESQIITLEQKVSRKGDISAEICSYELAAGKMQRTAYFVAQPTLLSVAFSRKPDLSTFKHTYAQTDCLLLLVYEQGPLACMRIFGGTGMRGDIHNSGLTADVIADKYLRLQQPDRAVNVLAALNWETYGAMCLITLHKIANYVFFGGDQRRPRIELMARALKTFAHTLSEETKDEFSDQVYDLKRRFCFYLLRKNLFAEAFEIAQDVADYDIFMDLYNLTKCISSLSEFAQVAFSQAAAIIHEEDRANGNLSLTCDLRSESACSLSTCSDMLRGQGAGTAPETGLGASQPQSQQVLKNYVPPLPSFKSKVFNAEMIKINIPKPELRPPLPKVSIAPPTSSLASLTLKSNSSLQQAPAKSLHPNGNLWSQDVPDQTVGLPMASSPLPRLPPSNIPDQSAQLGQFSTMPASPPPTGSYQPKFYQHPLVSGNIPAMLPSLTSEDYQKRLLQKKPTASILSNPANPAPTNGEAPATPAKSQTAEKNKVKFSDTIQVAVVPEIPRKEKPMPPKRNGYSRPAARHLTNPKKELADSLPLCHPNDEYLKDFNPITTNVTKPPIRRREEEPKSSSKGGNSSSSSSSIKVVHFGVV
B5: Frtz with aa 400-500 deleted (protein, UniProt Q9VQ36)
chain: MLLSETHFWTTLREDVVRIKSQDLGAFRYLRQRDKEQEQQDLACLAKRDYTERRNGLAVLKNSGRKSTGRLKDNLKKLEDLLRQHRIIHSEWQDAAQVLLLFSHGLIAHICVDIYTGDILRMVFEKYLVGKLASEVITDAFFTRSHIVLAYNTNQLTVVHLQRPNARSQGPEKIANMDPRIFHVIIPGATERKLSRHLTVNASFDLFVVWTQSSQNEVYPWRPTIRDQDRANIHVFKIKGLQLESIAYCWSENDPLCVDFLRSSESQIITLEQKVSRKGDISAEICSYELAAGKMQRTAITSIPMGAQICSFAFSPDQEKLFLGSVDRNICLHDLVQQSTKYANQIEIVPNQCAWHCDSAMLCVANERSVLQCFDLALATIGHQLVSENVTPSSLLDLSHKIANYVFFGGDQRRPRIELMARALKTFAHTLSEETKDEFSDQVYDLKRRFCFYLLRKNLFAEAFEIAQDVADYDIFMDLYNLTKCISSLSEFAQVAFSQAAAIIHEEDRANGNLSLTCDLRSESACSLSTCSDMLRGQGAGTAPETGLGASQPQSQQVLKNYVPPLPSFKSKVFNAEMIKINIPKPELRPPLPKVSIAPPTSSLASLTLKSNSSLQQAPAKSLHPNGNLWSQDVPDQTVGLPMASSPLPRLPPSNIPDQSAQLGQFSTMPASPPPTGSYQPKFYQHPLVSGNIPAMLPSLTSEDYQKRLLQKKPTASILSNPANPAPTNGEAPATPAKSQTAEKNKVKFSDTIQVAVVPEIPRKEKPMPPKRNGYSRPAARHLTNPKKELADSLPLCHPNDEYLKDFNPITTNVTKPPIRRREEEPKSSSKGGNSSSSSSSIKVVHFGVV
B6: Frtz with aa 500-600 deleted (protein, UniProt Q9VQ36)
chain: MLLSETHFWTTLREDVVRIKSQDLGAFRYLRQRDKEQEQQDLACLAKRDYTERRNGLAVLKNSGRKSTGRLKDNLKKLEDLLRQHRIIHSEWQDAAQVLLLFSHGLIAHICVDIYTGDILRMVFEKYLVGKLASEVITDAFFTRSHIVLAYNTNQLTVVHLQRPNARSQGPEKIANMDPRIFHVIIPGATERKLSRHLTVNASFDLFVVWTQSSQNEVYPWRPTIRDQDRANIHVFKIKGLQLESIAYCWSENDPLCVDFLRSSESQIITLEQKVSRKGDISAEICSYELAAGKMQRTAITSIPMGAQICSFAFSPDQEKLFLGSVDRNICLHDLVQQSTKYANQIEIVPNQCAWHCDSAMLCVANERSVLQCFDLALATIGHQLVSENVTPSSLLDLSHYFVAQPTLLSVAFSRKPDLSTFKHTYAQTDCLLLLVYEQGPLACMRIFGGTGMRGDIHNSGLTADVIADKYLRLQQPDRAVNVLAALNWETYGAMCLITAAAIIHEEDRANGNLSLTCDLRSESACSLSTCSDMLRGQGAGTAPETGLGASQPQSQQVLKNYVPPLPSFKSKVFNAEMIKINIPKPELRPPLPKVSIAPPTSSLASLTLKSNSSLQQAPAKSLHPNGNLWSQDVPDQTVGLPMASSPLPRLPPSNIPDQSAQLGQFSTMPASPPPTGSYQPKFYQHPLVSGNIPAMLPSLTSEDYQKRLLQKKPTASILSNPANPAPTNGEAPATPAKSQTAEKNKVKFSDTIQVAVVPEIPRKEKPMPPKRNGYSRPAARHLTNPKKELADSLPLCHPNDEYLKDFNPITTNVTKPPIRRREEEPKSSSKGGNSSSSSSSIKVVHFGVV
B7: Frtz with aa 800-951 deleted (protein, UniProt Q9VQ36)
chain: MLLSETHFWTTLREDVVRIKSQDLGAFRYLRQRDKEQEQQDLACLAKRDYTERRNGLAVLKNSGRKSTGRLKDNLKKLEDLLRQHRIIHSEWQDAAQVLLLFSHGLIAHICVDIYTGDILRMVFEKYLVGKLASEVITDAFFTRSHIVLAYNTNQLTVVHLQRPNARSQGPEKIANMDPRIFHVIIPGATERKLSRHLTVNASFDLFVVWTQSSQNEVYPWRPTIRDQDRANIHVFKIKGLQLESIAYCWSENDPLCVDFLRSSESQIITLEQKVSRKGDISAEICSYELAAGKMQRTAITSIPMGAQICSFAFSPDQEKLFLGSVDRNICLHDLVQQSTKYANQIEIVPNQCAWHCDSAMLCVANERSVLQCFDLALATIGHQLVSENVTPSSLLDLSHYFVAQPTLLSVAFSRKPDLSTFKHTYAQTDCLLLLVYEQGPLACMRIFGGTGMRGDIHNSGLTADVIADKYLRLQQPDRAVNVLAALNWETYGAMCLITLHKIANYVFFGGDQRRPRIELMARALKTFAHTLSEETKDEFSDQVYDLKRRFCFYLLRKNLFAEAFEIAQDVADYDIFMDLYNLTKCISSLSEFAQVAFSQAAAIIHEEDRANGNLSLTCDLRSESACSLSTCSDMLRGQGAGTAPETGLGASQPQSQQVLKNYVPPLPSFKSKVFNAEMIKINIPKPELRPPLPKVSIAPPTSSLASLTLKSNSSLQQAPAKSLHPNGNLWSQDVPDQTVGLPMASSPLPRLPPSNIPDQSAQLGQFSTMPASPPPTGSYQPKFYQHPLVSGNIPAMLP

This test addresses Dishevelled (Dsh), full length, yeast two-hybrid fusion (Drosophila) (UniProt P51140). The experiment in a line: two-hybrid; yeast strain AH109, Matchmaker Two-Hybrid System 3 (pGADT7 and pGBKT7 cotransformed); growth on SD/-Ade/-His/-Leu/-Trp with X-alpha-Gal taken as positive.
Turning to B1, the binding entry is on record as “no binding”.

For the molecule B2, the binding entry is “binds”.

Consider B3, for which the binding result is “binds”.

In the case of B4, the binding entry was “binds”.

On to B5, for which the binding result is “binds”.

In the case of B6, the binding result is “binds”.

As to B7, the binding entry was “binds”.
